# This is one part of the list.
# B1: GALT1 115 D492A (Arabidopsis thaliana), Q8L7F9 (protein)
# chain: DPMRGSHHHHHHGMASMTGGQQMGRDLYDDDDKSRLQKPYITAAASVVVTPNTTLPMEWLRITLPDFMKEARNTQEAISGDDIAVVSGLFVEQNVSKEEREPLLTWNRLESLVDNAQSLVNGVDAIKEAGIVWESLVSAVEAKKLVDVNENQTRKGKEELCPQFLSKMNATEADGSSLKLQIPCGLTQGSSITVIGIPDGLVGSFRIDLTGQPLPGEPDPPIIVHYNVRLLGDKSTEDPVIVQNSWTASQDWGAEERCPKFDPDMNKKVDDLDECNKMVGGEINRTSSTSLQSNTSRGVPVAREASKHEKYFPFKQGFLSVATLRVGTEGMQMTVDGKHITSFAFRDTLEPWLVSEIRITGDFRLISILASGLPTSEESEHVVDLEALKSPTLSPLRPLDLVIGVFSTANNFKRRMAVRRTWMQYDDVRSGRVAVRFFVGLHKSPLVNLELWNEARTYGDVQLMPFVDYYSLISWKTLAICIFGTEVDSAKFIMKTDDAAFVRVDEVLLSLSMTNNTRGLIYGLINSDSQPIRNPDSKWYISYEEWPEEKYPPWAHGPGYIVSRDIAESVGKLFKEGNLKMFKLEDVAMGIWIAELTKHGLEPHYENDGRIISDGCKDGYVVAHYQSPAEMTCLWRKYQETKRSLCCREW
# What was measured:
# Assay in all cases: glycan array binding signal (z-score within array); higher = stronger binding
# Conditions in all cases: glycan notation: IUPAC condensed, linker removed
# Gal(a1-2)Gal = biological target: Gal(a1-2)Gal
# Summary of the method: (§1)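 Glycan array binding is given as a within-array Z-score, which can be read as non-binding when negative. The arrays, 3228 of them, came from the Consortium for Functional Glycomics database and were retained only where the protein sequence was available. Z-scores were averaged across arrays of the same protein sequence at different concentrations or buffers and across linkers.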
# Gal(a1-3)Gal = biological target: Gal(a1-3)Gal
# Summary of the method: as §1
# Gal(a1-3)Gal(b1-3)GlcNAc = biological target: Gal(a1-3)Gal(b1-3)GlcNAc
# Summary of the method: as §1
# Gal(a1-3)Gal(b1-4)Glc = biological target: Gal(a1-3)Gal(b1-4)Glc
# Summary of the method: as §1
# Gal(a1-3)Gal(b1-4)GlcNAc = biological target: Gal(a1-3)Gal(b1-4)GlcNAc
# Summary of the method: as §1
# [1] = biological target: Gal(a1-3)Gal(b1-4)[Fuc(a1-3)]GlcNAc
# Summary of the method: as §1
# [2] = biological target: Gal(a1-3)Gal(b1-4)[Fuc(a1-3)]GlcNAc(b1-2)Man(a1-3)[Gal(a1-3)Gal(b1-4)[Fuc(a1-3)]GlcNAc(b1-2)Man(a1-6)]Man(b1-4)GlcNAc(b1-4)GlcNAc
# Summary of the method: as §1
# Gal(a1-3)GalNAc = biological target: Gal(a1-3)GalNAc
# Summary of the method: as §1
# [3] = biological target: Gal(a1-3)[Gal(a1-4)]Gal(b1-4)GlcNAc
# Summary of the method: as §1
# Gal(a1-4)Gal(b1-4)Glc = biological target: Gal(a1-4)Gal(b1-4)Glc
# Summary of the method: as §1
# Gal(a1-4)Gal(b1-4)GlcNAc = biological target: Gal(a1-4)Gal(b1-4)GlcNAc
# Summary of the method: as §1
# [4] = biological target: Gal(a1-4)Gal(b1-4)GlcNAc(b1-3)Gal(b1-4)Glc
# Summary of the method: as §1
# Gal(a1-4)GlcNAc = biological target: Gal(a1-4)GlcNAc
# Summary of the method: as §1
# Gal(a1-6)Glc = biological target: Gal(a1-6)Glc
# Summary of the method: as §1
# Gal(b1-2)Gal = biological target: Gal(b1-2)Gal
# Summary of the method: as §1
# Gal(b1-3)Gal = biological target: Gal(b1-3)Gal
# Summary of the method: as §1
# Gal(b1-3)Gal(b1-4)GlcNAc = biological target: Gal(b1-3)Gal(b1-4)GlcNAc
# Summary of the method: as §1
# [5] = biological target: Gal(b1-3)Gal(b1-4)GlcNAc(b1-2)Man(a1-3)[Gal(b1-3)Gal(b1-4)GlcNAc(b1-2)Man(a1-6)]Man(b1-4)GlcNAc(b1-4)GlcNAc
# Summary of the method: as §1
# Gal(b1-3)GalNAc = biological target: Gal(b1-3)GalNAc
# Summary of the method: as §1
# [6] = biological target: Gal(b1-3)GalNAc(a1-3)[Fuc(a1-2)]Gal(b1-4)Glc
# Summary of the method: as §1
# [7] = biological target: Gal(b1-3)GalNAc(a1-3)[Fuc(a1-2)]Gal(b1-4)GlcNAc
# Summary of the method: as §1
# [8] = biological target: Gal(b1-3)GalNAc(b1-3)Gal(a1-4)Gal(b1-4)Glc
# Summary of the method: as §1
# [9] = biological target: Gal(b1-3)GalNAc(b1-4)Gal(b1-4)Glc
# Summary of the method: as §1
# [10] = biological target: Gal(b1-3)GalNAc(b1-4)[Neu5Ac(a2-3)]Gal(b1-4)Glc
# Summary of the method: as §1
# Gal(b1-3)GlcNAc = biological target: Gal(b1-3)GlcNAc
# Summary of the method: as §1
# [11] = biological target: Gal(b1-3)GlcNAc(b1-2)Man(a1-3)[Gal(b1-3)GlcNAc(b1-2)Man(a1-6)]Man(b1-4)GlcNAc(b1-4)GlcNAc
# Summary of the method: as §1
# [12] = biological target: Gal(b1-3)GlcNAc(b1-2)Man(a1-3)[Gal(b1-3)GlcNAc(b1-2)Man(a1-6)]Man(b1-4)GlcNAc(b1-4)[Fuc(a1-6)]GlcNAc
# Summary of the method: as §1
# [13] = biological target: Gal(b1-3)GlcNAc(b1-3)Gal(b1-3)GlcNAc
# Summary of the method: as §1
# [14] = biological target: Gal(b1-3)GlcNAc(b1-3)Gal(b1-4)Glc
# Summary of the method: as §1
# [15] = biological target: Gal(b1-3)GlcNAc(b1-3)Gal(b1-4)GlcNAc
# Summary of the method: as §1
binder,measurement,setting,value
B1,glycan array binding signal (z-score),Gal(a1-2)Gal,-0.019
same,glycan array binding signal (z-score),Gal(a1-3)Gal,-0.435
same,glycan array binding signal (z-score),Gal(a1-3)Gal(b1-3)GlcNAc,-0.247
same,glycan array binding signal (z-score),Gal(a1-3)Gal(b1-4)Glc,-0.239
same,glycan array binding signal (z-score),Gal(a1-3)Gal(b1-4)GlcNAc,-0.154
same,glycan array binding signal (z-score),[1],-0.279
same,glycan array binding signal (z-score),[2],-0.272
same,glycan array binding signal (z-score),Gal(a1-3)GalNAc,-0.092
same,glycan array binding signal (z-score),[3],-0.215
same,glycan array binding signal (z-score),Gal(a1-4)Gal(b1-4)Glc,-0.334
same,glycan array binding signal (z-score),Gal(a1-4)Gal(b1-4)GlcNAc,-0.293
same,glycan array binding signal (z-score),[4],-0.312
same,glycan array binding signal (z-score),Gal(a1-4)GlcNAc,-0.109
same,glycan array binding signal (z-score),Gal(a1-6)Glc,-0.243
same,glycan array binding signal (z-score),Gal(b1-2)Gal,-0.078
same,glycan array binding signal (z-score),Gal(b1-3)Gal,-0.321
same,glycan array binding signal (z-score),Gal(b1-3)Gal(b1-4)GlcNAc,-0.205
same,glycan array binding signal (z-score),[5],-0.074
same,glycan array binding signal (z-score),Gal(b1-3)GalNAc,0.238
same,glycan array binding signal (z-score),[6],-0.137
same,glycan array binding signal (z-score),[7],0.06
same,glycan array binding signal (z-score),[8],-0.124
same,glycan array binding signal (z-score),[9],-0.128
same,glycan array binding signal (z-score),[10],-0.275
same,glycan array binding signal (z-score),Gal(b1-3)GlcNAc,-0.25
same,glycan array binding signal (z-score),[11],0.93
same,glycan array binding signal (z-score),[12],-0.357
same,glycan array binding signal (z-score),[13],-0.236
same,glycan array binding signal (z-score),[14],-0.267
same,glycan array binding signal (z-score),[15],-0.352

# Reference: the supplement of paper PMC8728848
